The list shows a part of the results. These are noisy estimates, calculated here from bound and input reads.
Target: T1, Pho4 (S. cerevisiae) (UniProt P07270)
T1 sequence: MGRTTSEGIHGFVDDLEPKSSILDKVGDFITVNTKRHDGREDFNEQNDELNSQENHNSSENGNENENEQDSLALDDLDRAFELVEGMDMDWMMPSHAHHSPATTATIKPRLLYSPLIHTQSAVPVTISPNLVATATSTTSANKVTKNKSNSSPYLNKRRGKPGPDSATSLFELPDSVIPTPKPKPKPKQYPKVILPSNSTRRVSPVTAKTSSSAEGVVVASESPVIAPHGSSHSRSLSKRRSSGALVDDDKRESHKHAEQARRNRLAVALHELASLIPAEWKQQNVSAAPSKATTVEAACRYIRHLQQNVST
Assay: relative binding free energy (BET-seq); higher = weaker binding
Conditions: reference: library average

Relative binding free energy, 0.27 kcal/mol:
GGTTCCACGTGAGGCG
GTTTTCACGTGGTTGC
GGTTTCACGTGGTTGC
GAAATCACGTGATGTT
ATTTTCACGTGGGGGA
GATTACACGTGTGGTT
ATTATCACGTGTCGAT

Relative binding free energy, 0.44 kcal/mol:
GGTTTCACGTGAGAAT

Relative binding free energy, 0.28 kcal/mol:
GGTGTCACGTGTAATG
TATATCACGTGTGGAT
AATATCACGTGTCGGG
CGTTTCACGTGGATGA

Relative binding free energy, -0.26 kcal/mol:
TGTGCCACGTGGGTCT

Relative binding free energy, 0.17 kcal/mol:
GTTGTCACGTGTATGG
AAAGTCACGTGGTACG
TGTTCCACGTGAGGTA
TCGTACACGTGTGGTT
GGAGTCACGTGTTGTT

Relative binding free energy, 0.08 kcal/mol:
AGGGGCACGTGAAAAG
ACAGTCACGTGGGATT
TTTTCCACGTGTGGGC
TGGGACACGTGTGAAT
CGCGACACGTGTGGTG
TTTGACACGTGTAGCT
GGTTGCACGTGTGGCC

Relative binding free energy, 0.09 kcal/mol:
TGGGACACGTGTGCTC
CGGGTCACGTGTGCGT
GTTTACACGTGGTCTT
TTATGCACGTGTGAAT
TGCTACACGTGTGTAA

Relative binding free energy, 0.3 kcal/mol:
GGGGTCACGTGTAAAT
TGGCTCACGTGAGGTC
AAATTCACGTGGTGGA

Relative binding free energy, 0.07 kcal/mol:
TGGTGCACGTGACGTC
GGGAGCACGTGTGACT
AGGGTCACGTGCTGAT
GGGCTCACGTGTAGGG
GGGGCCACGTGTTATG
GTTTGCACGTGCATCT
AGTGTCACGTGTAGAG

Relative binding free energy, 0.29 kcal/mol:
ACGTTCACGTGTGTTT
GGTATCACGTGTTCTG

Relative binding free energy, -0.09 kcal/mol:
TGGTGCACGTGGGTAG
AATGCCACGTGTTGGT
TGTGGCACGTGGTAGC
TGTAGCACGTGTTTGA
GAATACACGTGGGCGG
GTCAGCACGTGGTAGG
TGAGACACGTGTTGGC
CTTGGCACGTGTATTT

Relative binding free energy, -0.15 kcal/mol:
ATGAACACGTGCGTGT
AATGACACGTGGTTGG

Relative binding free energy, 0.01 kcal/mol:
TTCCACACGTGTGGGT
GGGTGCACGTGGAGGA

Relative binding free energy, 0.35 kcal/mol:
AAGCTCACGTGGAGGT
TCTTTCACGTGAGTGT

Relative binding free energy, -0.14 kcal/mol:
AAAGGCACGTGTCTGT

Relative binding free energy, 0.16 kcal/mol:
GATTGCACGTGATGGC
AGATTCACGTGGGAGG
TTCTTCACGTGTCGGG
AGGGCCACGTGATGTA
GTTTCCACGTGTTTCT

Relative binding free energy, 0.34 kcal/mol:
TAGGTCACGTGAAAGT
TGTTTCACGTGTGATG

Relative binding free energy, 0.15 kcal/mol:
AGAGTCACGTGCTTGT

Relative binding free energy, 0.18 kcal/mol:
CGTTACACGTGCGTGG
GTATTCACGTGGTGAT
TGGGACACGTGATACT
GTTTCCACGTGATAGG
ATGAGCACGTGAGGGC

Relative binding free energy, 0.23 kcal/mol:
TAAGTCACGTGTTACT
TAGCTCACGTGTCTGT

Relative binding free energy, 0.42 kcal/mol:
GTTATCACGTGAGGAT

Relative binding free energy, 0.31 kcal/mol:
TTGTTCACGTGAGGCA
AGTTTCACGTGGACAT
GGTCTCACGTGGTTTT

Relative binding free energy, -0.21 kcal/mol:
TGAGGCACGTGGGGTG

Relative binding free energy, 0.36 kcal/mol:
TTCATCACGTGAATGT

Relative binding free energy, 0.26 kcal/mol:
TTTGACACGTGAGCAT
CGATTCACGTGTGTAA
TATATCACGTGATTTT
AAACTCACGTGTGGGT
TCGTACACGTGAGGTA
AGGGTCACGTGTTAGC
TCTGTCACGTGAAGTG

Relative binding free energy, 0.1 kcal/mol:
GGTTACACGTGCATTG
ATTGACACGTGCATTG

Relative binding free energy, -0.17 kcal/mol:
TTATGCACGTGCTTTT
TGGAGCACGTGCTTAG

Relative binding free energy, -0.03 kcal/mol:
GTATGCACGTGGTTTG
TGGCGCACGTGCAAGG
CTGGTCACGTGGTGCT
TTGCACACGTGGGTAT

Relative binding free energy, 0.39 kcal/mol:
GGAGTCACGTGAACGT

Relative binding free energy, 0.12 kcal/mol:
ATCTCCACGTGGTTTT
GGCTTCACGTGGGGTA
GTCCGCACGTGTGTGA
GTTTGCACGTGATTAA
AGCTTCACGTGTTTGG

Relative binding free energy, 0.14 kcal/mol:
GTGCTCACGTGCGTTT
TGGAACACGTGATATG
TTCTTCACGTGGTGGA
TATTACACGTGTGAGC
GTTGGCACGTGAGTCA
CTTATCACGTGGAATG
CCTTTCACGTGTAGGG
TGTTTCACGTGGGCCT
TATTTCACGTGGCTCT
ATTTTCACGTGGTCCG

Relative binding free energy, 0.22 kcal/mol:
GGTATCACGTGAGGCT

Relative binding free energy, -0.24 kcal/mol:
GGCAGCACGTGGGGGA

Relative binding free energy, -0.07 kcal/mol:
TCGTGCACGTGGAGGC
ACTGACACGTGGTTTG
CGGGCCACGTGTGTGC
TTGGGCACGTGATTTC
ATTTGCACGTGGGGGT

Relative binding free energy, -0.06 kcal/mol:
TAGGGCACGTGTACGA
GGATGCACGTGTTTAG
AGTGCCACGTGTTGTG
GGAGACACGTGGCTTG

Relative binding free energy, -0.35 kcal/mol:
TAGGCCACGTGGGTGT

Relative binding free energy, -0.18 kcal/mol:
TGTTGCACGTGGCAGG
AGCTGCACGTGGGCGT
GGGGGCACGTGCCTAG
TGGGCCACGTGCGGGC

Relative binding free energy, -0.11 kcal/mol:
TCGGGCACGTGGGAGG
TTGGGCACGTGGGGTT
AATGGCACGTGGTATT
AGTCGCACGTGGTAAT
TCTTGCACGTGGGGTA

Relative binding free energy, -0.12 kcal/mol:
TAGGGCACGTGACAGG
TGGAGCACGTGGTCTG
TGGGACACGTGCGGAT

Relative binding free energy, 0.24 kcal/mol:
TTTTTCACGTGTTAAT

Relative binding free energy, 0.06 kcal/mol:
TATGTCACGTGTGGTT
TTTATCACGTGGGGTT
AGATACACGTGATGTA
GAGGTCACGTGCAAGG

Relative binding free energy, 0.03 kcal/mol:
TTGCACACGTGCTGTT
CGTTGCACGTGGTTAA
TTAGACACGTGTAGGC
ATAGACACGTGTGATG

Relative binding free energy, 0.02 kcal/mol:
AGTCACACGTGTAGGG
GTCGGCACGTGGCTTT
TGCGACACGTGGCGTT
GGCCTCACGTGGGGGT
GGTGGCACGTGCGGCG
TTGTACACGTGTGCAT
TGAATCACGTGGTCGT

Relative binding free energy, 0.4 kcal/mol:
AGATTCACGTGAGTGT

Relative binding free energy, 0 kcal/mol:
TTCGTCACGTGCTGGG
TGGCCCACGTGATGGT
TACATCACGTGGTAGG
TTCGGCACGTGTACGT
GAAGGCACGTGTTGTG
GGTGTCACGTGTATCT
GGTGTCACGTGGCTGC
TATTGCACGTGATGCT
AACGTCACGTGGTGGG

Relative binding free energy, 0.04 kcal/mol:
TACATCACGTGGGTAT
CGAGTCACGTGGCGTG

Relative binding free energy, 0.38 kcal/mol:
GTTTTCACGTGTGTGT
GGTTGCACGTGAGGAG
GTATTCACGTGTGAGG

Relative binding free energy, -0.25 kcal/mol:
ATTGACACGTGGGGCA

Relative binding free energy, -0.2 kcal/mol:
TGCGGCACGTGGGTAC

Relative binding free energy, -0.02 kcal/mol:
AGTGACACGTGTCATG
AGTGGCACGTGATTGA
TTAAACACGTGGAATG
GTTGACACGTGGTAGC

Relative binding free energy, -0.04 kcal/mol:
ATGTCCACGTGTGTGG
ACAGACACGTGTGGTG
ATTTCCACGTGTTGAT
GTACGCACGTGTGGTT
AGTAGCACGTGTGGGT
TGTTACACGTGGCAGG
TCTGACACGTGGATGT

Relative binding free energy, 0.19 kcal/mol:
AGGGTCACGTGATGGT
CATTTCACGTGGAGGG

Relative binding free energy, 0.25 kcal/mol:
TTAGACACGTGAATGG

Relative binding free energy, 0.51 kcal/mol:
AATTTCACGTGACATG

Relative binding free energy, 0.05 kcal/mol:
AGGGTCACGTGTATAC
GCGGTCACGTGGCGGT
ATCGTCACGTGGGGTC
CAAGTCACGTGGGAGT
AATGACACGTGGAGGT
GTATGCACGTGTTTTC
AAATTCACGTGGGGCT
TTTTACACGTGGGACA
TGAGTCACGTGGTCGT
AGTCACACGTGGGGCT

Relative binding free energy, -0.05 kcal/mol:
GGTAGCACGTGGCATT
GGTGCCACGTGGTAAT
CTGTACACGTGGTTTG

Relative binding free energy, -0.19 kcal/mol:
GGGGGCACGTGGCGTT
AAGTGCACGTGGAGGA
AAAAGCACGTGGGTGC

Relative binding free energy, 0.46 kcal/mol:
GGTTACACGTGAAGTG
CTATTCACGTGAATTT

Relative binding free energy, 0.47 kcal/mol:
GACAGCACGTGAGAGG

Relative binding free energy, -0.1 kcal/mol:
TAGTGCACGTGTTAGA
AAGGGCACGTGTTTTT
CCGGGCACGTGGGATG
GGTGGCACGTGGTCCT

Relative binding free energy, 0.41 kcal/mol:
GTACTCACGTGTGGAG

Relative binding free energy, -0.22 kcal/mol:
CGTAGCACGTGTTGTG
ACTAGCACGTGGGTGT

Relative binding free energy, 0.37 kcal/mol:
ATGCTCACGTGAAATG

Relative binding free energy, -0.29 kcal/mol:
TGGGGCACGTGGGACT

Relative binding free energy, 0.33 kcal/mol:
GGTTACACGTGAGATG
TGGAACACGTGAATAT

Relative binding free energy, -0.01 kcal/mol:
GGGGACACGTGTTGCA
GGGAGCACGTGTTCGT
AGGGACACGTGTTGCA

Relative binding free energy, 0.13 kcal/mol:
GGTGACACGTGCTTGC
ATTTACACGTGTAGGC
TCTATCACGTGTGTAA

Relative binding free energy, -0.08 kcal/mol:
AAAAGCACGTGTTAGT

Relative binding free energy, 0.2 kcal/mol:
TCTTTCACGTGCGGGG
GTGATCACGTGCTGGT
TTTAACACGTGACATG

Relative binding free energy, 0.11 kcal/mol:
TTAATCACGTGTGTTA
TTGGACACGTGGCATA
CGTTGCACGTGTCGGA
CTAGTCACGTGTGGGT
TTGCTCACGTGTATTT
CTATTCACGTGGTCGT
CGGTGCACGTGTTTTT

Relative binding free energy, 0.32 kcal/mol:
TAGTTCACGTGCTGTA
GAAATCACGTGAGTGG

Source: the BET-seq Pho4 binding data (Le et al. 2018)
